According to PubChem BioAssay AID1159614 (National Center for Advancing Translational Sciences (NCATS), 2016):
Out of some 45,000 compounds screened, about 65 (0.1%) were called active. The call rests on the fitted dose curve; in most records, active means well fitted activation curve with a large enough effect; inconclusive means small, poorly fitted or top-dose-only effect; inactive means no such curve, though single readings can be large or run the other way. The list shows a part of the results.

Target: Galactocerebrosidase (Homo sapiens) (UniProt P54803)
Sequence of UniProt P54803 (P54803 whole entry, looked up): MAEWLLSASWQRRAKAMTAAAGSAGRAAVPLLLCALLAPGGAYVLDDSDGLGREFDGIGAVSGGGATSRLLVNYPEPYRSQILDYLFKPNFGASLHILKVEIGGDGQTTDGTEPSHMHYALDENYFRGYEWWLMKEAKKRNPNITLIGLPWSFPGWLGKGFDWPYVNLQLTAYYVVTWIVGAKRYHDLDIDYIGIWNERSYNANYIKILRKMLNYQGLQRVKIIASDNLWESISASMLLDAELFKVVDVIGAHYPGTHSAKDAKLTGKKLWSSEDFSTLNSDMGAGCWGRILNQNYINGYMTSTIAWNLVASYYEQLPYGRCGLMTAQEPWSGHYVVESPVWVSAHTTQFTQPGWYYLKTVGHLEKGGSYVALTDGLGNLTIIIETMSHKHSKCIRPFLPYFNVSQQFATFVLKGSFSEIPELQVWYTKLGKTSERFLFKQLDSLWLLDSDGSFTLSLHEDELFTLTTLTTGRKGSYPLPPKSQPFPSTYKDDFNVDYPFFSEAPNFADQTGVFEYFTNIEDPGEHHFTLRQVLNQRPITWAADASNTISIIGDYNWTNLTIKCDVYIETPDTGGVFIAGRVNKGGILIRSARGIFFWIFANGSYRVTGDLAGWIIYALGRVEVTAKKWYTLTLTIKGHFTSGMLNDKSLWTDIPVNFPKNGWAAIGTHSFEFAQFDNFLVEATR
Assay: A Novel Cell-Based Assay to Identify Small Molecules for B -Galactocerebrosidase; further: 0% is about no effect; nearly all actives have a fitted effect of over 65% in size
Conditions: 145M-Twi-hGALC-G270D cells (Twitcher mouse brain line with human GALC G270D), HMU-beta-Gal fluorescence, 48 h; series mostly up to 57.5 µM; activation: at the top concentration
In short: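 Mutant human GALC (G270D), stably expressed in a Twitcher mouse brain cell line lacking endogenous GALC, is measured in live-treated cells via 6-hexadecanoylamino-4-methylumbelliferyl-β-galactoside hydrolysis (0.1 mM final, pH 5.2) with fluorescent detection.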

activation, inactive:
CC1CCn2c(nc3cc(C(=O)NCc4ccc(OC(C)C)cc4)ccc32)C1 (stereo not drawn) -6.1%
Cc1ccc(S(=O)(=O)N(C)Cc2nc(-c3ccccc3)oc2C)cc1 -8.76%
COc1ccc(Cn2ccc3nc(C)c(C(=O)N4CCN(c5ccc(OC)cc5)CC4)cc3c2=O)cc1 -23.8%
CCOc1ccccc1NC(=O)Cn1nnc(C(=O)NCc2ccc(F)cc2)c1N -11.5%
CN(C)CCNC(=O)C(=O)NCC(c1cccnc1)N1CCN(c2ccc(F)cc2)CC1 (stereo not drawn) -13.6%
CCc1nc2nc(C)c(NS(=O)(=O)c3ccc(C)cc3)c(=O)n2[nH]1 1.39%
CCCCCCCCCCCCCCCCC(C(=O)O)C(O)(CC(=O)O)C(=O)O (stereo not drawn) 0.0215%
COc1ccc(C(=O)NCc2ccc3c(c2)CCN3C(=O)c2ccc(C)cc2)cc1 -13.2%
COc1ccc(OC)c(NC(=O)c2cc(C3CC3)nc3c2c(C)nn3-c2ccc(C)cc2)c1 -15.3%
COc1ccc(-c2c(C)nn3c(C(F)(F)F)cc(-c4ccccc4)nc23)cc1 -11.6%
O=C(NCc1ccco1)c1ccc2c(c1)N(Cc1c(F)cccc1Cl)C(=O)c1ccccc1S2 -13.5%
O=C(Cn1cc(SCc2ccccc2F)c2ccccc21)N1CCCCC1 -5.78%
Cc1cc(C)cc(NC(=O)Cc2c(C(=O)O)c(C)cn2C)c1 -1%
O=C(CSc1nc2c([nH]c3ccccc32)c(=O)n1-c1cccc(C(F)(F)F)c1)N1CCc2ccccc21 -23.7%
CCc1cc2c(cc(C(=O)OC)n2Cc2nc(-c3ccc(C)cc3)oc2C)s1 -14%
CCOc1ccc(N(CC)C(=O)c2nn(-c3ccc(OC)cc3)c(=O)c3c2c2ccccc2n3C)cc1 -9.78%
CCOc1ccc(-n2c(=O)c3c4c(sc3n(CC(=O)NC(C)CC)c2=O)CCCC4)cc1 (stereo not drawn) -15.9%
Cc1ccc(CNC(=O)C2CCN(Cc3nc(-c4cccc(Br)c4)oc3C)CC2)cc1 -11.2%
CC(=O)c1cccc(NC(=O)C2CCN(S(=O)(=O)c3ccc4[nH]c(=O)ccc4c3)CC2)c1 -10%
Cc1ccc(-n2nc3ccc(NC(=O)COc4ccccc4)cc3n2)cc1Cl 5.6%
Cc1cccc(-n2c(=O)c3ccccc3n(Cc3ccccc3)c2=O)c1 1.02%
CCCSc1ncc(Cl)c(C(=O)Nc2c(C(=O)Nc3ccc(OC)cc3)oc3ccccc23)n1 -10.4%
COc1cc(Cl)c(C)cc1NC(=O)Cn1ncc2c1-c1cc(C)ccc1OC2 16.3%
CCCOc1ccc(CNC(=O)CCCn2nc(C)c3sc4ccccc4c3c2=O)cc1 9.9%
Cc1ccc(CNC(=O)CCCCCn2c(=O)c3sccc3n(CC(=O)Nc3c(C)cc(C)cc3C)c2=O)cc1 -1.48%
O=S(=O)(c1ccc(Br)cc1)c1nnn2c1nc(NCc1ccc3c(c1)OCO3)c1sccc12 -13.9%
Cc1cccc(CNC(=O)c2ccc3oc(=O)n(Cc4ccccc4)c3c2)c1 -10.2%
COc1ccc(C(=O)Nc2nnc(SCc3cc(=O)n4cccc(C)c4n3)s2)cc1 -8.81%
O=C(O)c1ccc(CNCc2ccccc2Cl)s1 5.11%
CCc1ccc(C(=O)N2CCC(c3nc(-c4ccc(S(=O)(=O)N5CCCC5)cc4)no3)CC2)cc1 -9.27%
COc1ccc(Cl)cc1NC(=O)C1CCN(S(=O)(=O)c2ccc3c(c2)CC(C)N3C(C)=O)CC1 (stereo not drawn) -10.5%
CSc1ccc(CNC(=O)C2CCN(c3nc4ccccc4nc3C(F)(F)F)CC2)cc1 -16.6%
Cn1nc(C(=O)NCc2ccccc2Cl)c2c1-c1ccccc1S(=O)(=O)C2 -11.3%
Cc1cc(C)cc(NC(=O)CSc2oc(-c3ccco3)nc2S(=O)(=O)c2ccc(Cl)cc2)c1 -35%
CC1CCCN(Cc2nc3c(c(=O)n(C)c(=O)n3C)n2Cc2ccc(Cl)cc2)C1 (stereo not drawn) -5.05%
O=C(Nc1cc(Cl)ccc1Cl)c1cc2nc(-c3ccc4c(c3)OCO4)cc(C(F)(F)F)n2n1 -19.2%
CCOC(=O)C1=C(C)NC(C)=C(C(=O)OC)C1c1cccc([N+](=O)[O-])c1 (stereo not drawn) -12.7%
O=C(CSc1cn(CCNC(=O)c2c(F)cccc2F)c2ccccc12)Nc1ccc(F)cc1 0.869%
Cc1nnc(NC(=O)CSc2nccn2Cc2ccc(Cl)cc2)s1 -4.91%
Cc1cc(C)c(S(=O)(=O)N2CCC(N3CCN(Cc4ccccc4)C(=O)C3=O)CC2)c(C)c1 -22.6%
COc1ccc2c(c1)c1c(c(=O)n(-c3ccccc3C)c(=O)n1C)n2C -1.73%
CCN(CC)S(=O)(=O)c1cccc(C(=O)Nc2sc3c(c2C#N)CCC(C)C3)c1 (stereo not drawn) -10.2%
Cc1ccc(Cl)cc1N1CCN(c2ncnc3c2nc2n3CCCCC2)CC1 -14.2%
CCCCNC(=O)C1CCN(c2nc3ccccc3nc2C(F)(F)F)CC1 -8.64%
COc1ccc(Nc2cc(C)c3cc(NC(=O)Cc4ccc(Cl)cc4)ccc3n2)cc1 4.92%
COc1ccc(CNCc2c(C(=O)O)c(C)n(Cc3ccccc3C)c2C)c(OC)c1 -24.9%
CCN(CC)CCNC(=O)c1cn(CCOC)c(=O)c2c1c1ccccc1n2C 23.6%
COc1ccc(-n2ncc(C(=O)N3CCN(c4cc(C)ccc4C)CC3)c2C2CCN(C(=O)OC(C)(C)C)CC2)cc1 -5.79%
COc1ccccc1N1CCN(C(CNC(=O)C(=O)NCc2ccc(F)cc2)c2cccnc2)CC1 (stereo not drawn) -11.9%
O=C(Nc1ccc(F)c(Cl)c1)N1CCC2(CC1)Oc1ccccc1C(=O)N2Cc1ccccc1F -11.5%
CCc1ccccc1NC(=O)Cc1ccc(NC(=O)N2CCCCc3ccccc32)cc1 -8.31%
Cc1nc2nc(NC(=O)CC(C)C)[nH]n2c(=O)c1Cc1ccccc1 -11.9%
COc1ccc(C)cc1NC(=O)c1cc2c(=O)n(Cc3cccnc3)ccc2nc1C -21.5%
Cc1ccc(-c2c(C(=O)N3CCN(c4cc(Cl)ccc4C)CC3)oc(=O)c3ccccc23)cc1 -5.33%
CCS(=O)(=O)c1ncc(Cl)c(C(=O)Nc2c(C(=O)Nc3cccc(C)c3)oc3ccccc23)n1 -17.1%
COc1ccc(NC(=O)N2CCOc3ccc(Cl)cc32)cc1 2.41%
Nc1c(C(=O)Nc2ccccc2F)sc2nc3c(cc12)CCCCCC3 -22%
Cc1ccc(NS(=O)(=O)c2cc(-c3cnc(C4CC4)o3)ccc2C)cc1Cl -26.6%
Cc1cc(NC(=O)c2ccc3c(c2)OCCO3)cc(-c2nc3ccccc3o2)c1O -20.7%
CCOC(=O)c1c(NC(=O)c2cc3nc(-c4ccc(Br)cc4)cc(C(F)(F)F)n3n2)sc(C(C)=O)c1C -18%
CCC(C(=O)NCc1ccc(OC)c(OC)c1)n1nc(C)c2c(C)n(-c3ccc(C)cc3)nc2c1=O (stereo not drawn) -4.29%
Cc1ccc(C(=O)COC(=O)c2cccc(NC(=O)c3ccc(Cl)cc3Cl)c2)cc1 -14.2%
Cc1ccc(C)c(NC(=O)Cn2cc(C(=O)c3cccs3)c3ccccc32)c1 -16%
CCOc1ccccc1NC(=O)CCNS(=O)(=O)c1cccc2nonc12 4.67%
CC(C)Oc1ccc(C(=O)NCC(c2ccc(N(C)C)cc2)N2CCCC2)cc1 (stereo not drawn) -9.75%
CCOc1ccccc1NC(=O)C1CCCN1S(=O)(=O)c1ccc2c(c1)C(C)(C)C(=O)N2C (stereo not drawn) -18.9%
COc1cc(C(=O)Nc2ccc3c(c2)N(C2CCCC2)C(=O)c2ccccc2S3)cc(OC)c1OC -8.93%
CCc1ccccc1NC(=O)CN1CCCN(Cc2cc(C)ccc2C)S1(=O)=O -13.3%
CCCCNC(=O)c1cc(-c2ccc(OC)cc2)nc2n[nH]c(-c3cccc([N+](=O)[O-])c3)c12 -6.69%
CCOC(=O)c1ccccc1NC(=O)CN1CCCN(Cc2cccc(Cl)c2)S1(=O)=O 4.78%
CCc1ccc(NC(=O)CCNS(=O)(=O)c2ccc3c(c2)oc(=O)n3C)cc1 -8.81%
COc1ccc(Cl)cc1N(C)C(=O)c1cc2c(=O)oc3ccc(C)cc3c2s1 -21.4%
COc1ccc(Cc2nc3c4cnn(-c5ccccc5F)c4ncn3n2)cc1 -9.76%
COc1ccc(C(C)=O)cc1CSc1nc(NCCc2ccccc2)c2ccccc2n1 -2.31%
COc1ccc(C(=O)NNc2ncnc3c2cnn3-c2cccc(Cl)c2)cc1OC -14.7%
CCN(CC)CCCNC(=O)c1nn(C)c2c1CSc1ccccc1-2 -4.94%
COc1ccccc1-c1cc(C(=O)Nc2cc(OC)c(OC)c(OC)c2)no1 -9.99%
Cc1ccc(-n2nc(C)c3c(C(=O)NCCc4ccccc4)cc(C)nc32)cc1 -11%
Cc1ccc(CNC(=O)c2ccc3c(c2)nc2n3CCOC2)cc1 -17.9%
CCN(CC)c1ccc(C(=O)NCc2ccc3c(c2)CCN3C(=O)c2ccc(F)cc2)cc1 -7.78%
COc1ccc(C2NC(=O)N(C)C3=C2C(=O)N(c2cccc(C(=O)O)c2)C3)cc1 (stereo not drawn) 7.84%
COc1ccc(Cl)cc1CNCCSc1nnnn1-c1ccccc1 -13.4%
COc1ccc(NC(=O)CCc2nc3c(C)nn(-c4ccc(C)cc4)c3n(C)c2=O)cc1 -6.77%
Cc1ccc(NC(=O)C2CCN(S(=O)(=O)c3c(C)noc3/C=C/c3cccs3)CC2)cc1F -13.5%
CCCS(=O)(=O)c1c(S(=O)(=O)CCC)c2cc(CC)ccn2c1C(=O)c1ccc(Cl)cc1 -15.1%
Cc1cccc(N(CC(=O)NCCSCc2cccc(Cl)c2)S(=O)(=O)c2ccccc2)c1C -10.2%
Cc1cccc(Cn2cc(C(=O)Nc3cc(F)ccc3F)ccc2=O)c1 -11.9%
COc1ccc(-c2ccc(CCC(=O)O)n2-c2ccccc2O)cc1 -4.02%
COc1ccc(CNC(=O)CN2C(=O)CCn3nc(-c4ccccc4)cc32)c(OC)c1 -15.8%
COc1ccc(S(=O)(=O)Nc2cc3c(C(=O)OC(C)C)c(C)oc3c3ccccc23)cc1 -5.82%
CC(CCc1ccccc1)NC(=O)CSc1n[nH]c(-c2ccc(F)cc2)n1 (stereo not drawn) 2.97%
COc1ccc(-c2nn3c(=O)cc(CN4CCN(S(=O)(=O)c5ccc(C)cc5)CC4)nc3s2)cc1 -10.4%
COc1ccc(C(=O)Nc2ccc(S(=O)(=O)N(Cc3ccccc3)c3ccccc3)cc2)cc1 -13.3%
